# In PubChem BioAssay AID445 (National Center for Advancing Translational Sciences (NCATS), 2006):
# In all, about 110,000 compounds went through this assay and about 40 (0.04%) were called active. The shares of active, inactive and inconclusive entries below differ from those in the screen. Calls come from the whole dose curve; as a rule, active = well fitted curve in the direction sought with a large enough effect in the signal ratio (not every such curve was filed as active); inconclusive = small, poorly fitted or top-dose-only effect, or a change in a side signal; inactive = flat fitted curve, though single readings scatter; the % refers to the signal ratio. Potencies beside an inconclusive call are fits to weak or partial responses and may not hold up.
# Test: IkB Signaling;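 for IkBa stabilization activation: 0% = basal untreated cells and 100% = reference inhibitor full response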
# Conditions: ABC-DLBCL IkBa-CBG/CBR dual luciferase ratio (green luciferase fused to IkBa over red control in OCI-Ly3 lymphoma cells), 4 h; IkBa stabilization activation: at 57.1 µM (top of the series), scaled: untreated 0%, proteasome inhibitor 100% unless noted
# Method in brief: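 In this assay, an IκBα–CBG68 fusion accumulates when IKK-driven degradation is blocked; native CBR normalizes for cell number. OCI-Ly3 cells were treated 4 h with compound and doxycycline, then green and red light read after Chroma-Glo addition.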
# Potency is the fitted concentration of half-maximal effect.
Compound,IkBa stabilization activation,Potency
Cc1ccccc1Nc1nn2c(=O)c3ccc(C(=O)NCc4ccccc4)cc3nc2s1,inactive: 0.125%,
CCCN1C(=O)c2[nH]nc(-c3ccccc3)c2C1c1cccc(O)c1 (stereo not given),inconclusive: 2.81% [signal inhibitor],
CCOC(=O)c1ccc(NC(=O)c2ccc(CN3CCOCC3)cc2)cc1,inactive: 0.0135%,
Cc1ccc(NC(=O)c2oc3ccccc3c2NC(=O)Cc2ccccc2)cc1,inconclusive: 2.25% [signal inhibitor],
CCOC(=O)c1ccccc1NC(=O)CN1C(=O)c2ccccc2S1(=O)=O,inactive: -0.192%,
CC12CC(NC(=O)N1CCc1ccccc1)c1ccccc1O2 (stereo not given),inconclusive: 3.7% [signal inhibitor],
COc1ccccc1NC(=O)CSC1=Nc2ccccc2C2=NC(Cc3ccccc3)C(=O)N12 (stereo not given),inconclusive: 2.99% [signal inhibitor],
Cc1ccc(-c2ccc(CCC(=O)O)n2NC(=O)c2cccs2)cc1,inactive: 7.64%,
CCn1cc2nc(SCC(=O)Nc3ccc(C)cc3)n(Cc3ccc(C)cc3)c(=O)c2n1,inconclusive: -0.404% [signal inhibitor],
c1ccc(-c2nnc(-c3ccccn3)nn2)nc1,,"inconclusive: 20 µM [signal inhibitor, partial curve]"
Nn1c(CSc2nc3ccccc3o2)nnc1CSc1nc2ccccc2o1,inconclusive: 7.19% [signal inhibitor],
Cc1[nH]c2ccc(Br)cc2c1CCNC(=O)c1cc2ccccc2oc1=O,inconclusive: 5.8% [signal inhibitor],
COC(=O)CN1C(=O)C(C)(C)c2cc(S(=O)(=O)Nc3ccc(Br)cc3F)ccc21,inactive: -0.39%,
O=S(=O)(NCCS(=O)(=O)N1CCN(c2cccc(Cl)c2)CC1)c1ccc(F)cc1,inconclusive: -0.482% [signal inhibitor],
CCc1c(C(C)O)oc2ccc3c(C)cc(=O)oc3c12 (stereo not given),inactive: -2.93%,
CC(=O)N1CCCc2cc(S(=O)(=O)N3CCCC(C(=O)Nc4ccc(C)cc4C)C3)ccc21 (stereo not given),inconclusive: -0.248% [signal inhibitor],
O=C(Nc1ccc2nsnc2c1)c1ccc2c(c1)OCO2,inconclusive: 10.4% [signal inhibitor],
COc1ccc(-c2cc(C(F)(F)F)nc(N3CCN(C)CC3)n2)cc1,inactive: -2.94%,
Clc1ccc(OCc2nnc3n2N=C(c2ccc4c(c2)OCCO4)CS3)c(Cl)c1,inactive: 2.3%,
CCCCOc1ccc(NC(=O)CSCC(=O)OCC)cc1,inconclusive: 3.56% [signal inhibitor],
Cc1cccc(NC(=O)CN2C(=O)C(c3ccccc3)=NC23CCC(C)CC3)c1 (stereo not given),inconclusive: 1.55% [signal inhibitor],
Cc1cc(C)n(CCc2nc3c4ccccc4nc(N4CCN(c5cccc(C)c5C)CC4)n3n2)n1,inconclusive: -0.469% [signal inhibitor],
CCCCN(C)CCCNC(=O)C1CCN(S(=O)(=O)CC)CC1,inactive: 0.793%,
Cc1c2cnn(CC(=O)N3CCN(c4ccccc4)CC3)c(=O)c2c(C)n1Cc1ccccc1Cl,inactive: -0.116%,
CC1CCc2cc(F)ccc2N1C(=O)c1cc2nc(-c3ccco3)cc(C(F)(F)F)n2n1 (stereo not given),inconclusive: 3.18% [signal inhibitor],

Compound,IkBa stabilization activation,Potency
CCCCN(C)CCCNC(=O)CN1N=C(c2ccc(OC)cc2)CCC1=O,inconclusive: 3.22% [signal inhibitor],
Nc1nc2c(s1)CCc1c-2cnn1-c1ccccc1,inconclusive: -3.59% [signal inhibitor],
Cc1csc(NC(=O)c2c(O)c3c(n(CC(C)C)c2=O)CCCC3)n1,inconclusive: 2.56% [signal inhibitor],
Cc1ccc(CCNC(=O)c2ccc3[nH]c(C)c(C)c3c2)cc1,inconclusive: 7.54% [signal inhibitor],
Cc1cc(C)cc(-n2cnc3cc(C(=O)NC4CCCCCC4)ccc32)c1,inconclusive: -0.955% [signal inhibitor],
O=C(NCCOc1ccccc1)c1ccc2c(c1)OCO2,inconclusive: 3.76% [signal inhibitor],
COc1ccc(OC)c(NS(=O)(=O)c2ccc(-n3cccn3)cc2)c1,inconclusive: 0.667% [signal inhibitor],
CCCCNC(=O)C(CC)Sc1nc2ccccc2c(=O)n1Cc1ccco1 (stereo not given),inconclusive: -1.16% [signal inhibitor],
Cc1ccc(S(=O)(=O)N2Cc3ccccc3CC2C(=O)Nc2cc(C)on2)cc1 (stereo not given),inactive: 0.952%,
Cc1cccc(N(C)S(=O)(=O)c2nnc(NC(=O)c3cccs3)s2)c1,inconclusive: 0.416% [signal inhibitor],
CCCCCOC(=O)NCCOC(=O)Nc1ccc(C(=O)OCC)cc1,inconclusive: 3.89% [signal inhibitor],
CCOC(=O)c1cccc(NC(=O)Cn2c(=O)c3cccn3c3ccccc32)c1,inconclusive: -0.201% [signal inhibitor],
Cc1cc(C)n2nc(CNC(=O)c3c(F)cccc3F)nc2n1,inactive: 2.18%,
CCCCNC(=O)CC1Nc2ccccc2NC1=O (stereo not given),inactive: 2.34%,
COCCNC(=O)C1CCN(Cc2cc3ccccc3n2Cc2ccc(C)cc2)CC1,inactive: -0.0872%,
O=C(Oc1ccc2ccccc2c1Cl)N1CCCC1,inactive: -0.809%,
CCn1nnnc1SCC(=O)Nc1nc(-c2cccs2)cs1,inconclusive: 5.29% [signal inhibitor],
COc1ccccc1NC(=O)C1=C(C)Nc2nc(SCc3ccccc3)nn2C1c1cccc(O)c1 (stereo not given),inconclusive: 0.321% [signal inhibitor],
C=CCc1cccc2cc(C(=O)N3CCN(C(=O)OCC)CC3)c(=O)oc12,inconclusive: 1.24% [signal activator],
CCC(=O)Nc1ccc2nc(SCCOc3ccc(C)cc3OC)sc2c1,inactive: -0.154%,
Cc1cc(Cl)ccc1OCC(=O)N(Cc1sccc1C)C1CCS(=O)(=O)C1 (stereo not given),inactive: 5.22%,
CN1CCN(c2ncc3nc(-c4cn(C)c5ccccc45)c(=O)n(-c4ccccc4)c3n2)CC1,"inactive: -2.56% [at 11.4 µM, scaled: untreated 0%, proteasome inhibitor 100%]",
CCn1c(=O)cc(OCC(=O)N2CCN(c3ccc(C)cc3)C(C)C2)c2ccccc21 (stereo not given),inconclusive: -2.76% [signal inhibitor],
COc1ccc(-c2noc(CCC(=O)N3CCN(Cc4ccccc4)CC3)n2)cc1,inconclusive: -0.64% [signal inhibitor],
CCOC(=O)c1c(C)[nH]c(C(=O)CN2C(=O)NC(CC)(c3ccccc3)C2=O)c1C (stereo not given),inconclusive: 2.61% [signal inhibitor],

Compound,IkBa stabilization activation,Potency
CC(=O)c1ccc(NC(=O)CSc2nc(-c3ccc(C)cc3)nc3c2c(=O)n(C)c(=O)n3C)cc1,inactive: -0.847%,
CC(c1ccco1)N(C(=O)COc1ccc(Cl)cc1Cl)c1ccccn1 (stereo not given),inconclusive: 1.86% [signal inhibitor],
COc1ccc(CCN2CC(C#N)=C3c4cc(OC)c(OC)cc4CCN3C2)cc1OC,inconclusive: 7.7% [signal inhibitor],
COc1ccccc1N1CCN(C(=O)c2sc3nc(-c4ccc(F)cc4)cn3c2C)CC1,inconclusive: 1.59% [signal inhibitor],
CCCSc1oc(-c2ccco2)nc1S(=O)(=O)c1ccccc1,inactive: 2.21%,
Cn1c(=O)n(Cc2ccccc2)c(=O)c2c1nc1n2CCN1c1ccccc1,inactive: 1.91%,
CC1CCC/C(=C\Nc2ccc3c(c2)OCO3)C1=O (stereo not given),inactive: 11.1%,
O=S(=O)(c1ccc(F)cc1)N(CCO)CC(O)Cn1c2ccccc2c2ccccc21 (stereo not given),inconclusive: 8.79% [signal inhibitor],
CCN(CC)CCNC(=O)CN1N=C(c2ccc(OC)cc2)CCC1=O,inactive: -1.9%,
CCOC(=O)C1=C(CS(=O)(=O)c2ccc(F)c(C)c2)NC(=O)NC1c1ccc(O)c(O)c1 (stereo not given),inactive: -1.02%,
Cc1cccn2cc(-c3cccc(NC(=O)C(C)C)c3)nc12,inconclusive: 4.66% [signal inhibitor],
Cc1ccc(-c2cn3cccnc3n2)cc1NC(=O)Nc1ccc(F)cc1,inactive: 0.348%,
COc1ccc2c(c1)c(=O)c(S(=O)(=O)c1ccc(F)cc1)cn2Cc1ccccc1Cl,inconclusive: 0.213% [signal inhibitor],
COc1cccc2c(C)cc3nnc(SCC(=O)Nc4ccc(C)cc4)n3c12,inconclusive: 2.61% [signal inhibitor],
O=C(Cn1ncc2c1-c1ccccc1OC2)N1CCN(c2ccccc2)CC1,inconclusive: 0.738% [signal inhibitor],
O=C(c1ccc2c(c1)OCO2)c1cn(Cc2ccc(Cl)cc2)c2ccc(F)cc2c1=O,inconclusive: 1.57% [signal inhibitor],
CCCCOc1ccc(C(=O)N2CCCCC2CCN2CCOCC2)cc1 (stereo not given),inconclusive: 1.36% [signal inhibitor],
CC1CCC(NC(=O)c2ccc(CS(=O)(=O)c3ccc(Cl)cc3)o2)CC1 (stereo not given),inconclusive: -1.87% [signal inhibitor],
CCN(CC)S(=O)(=O)c1ccc(C(=O)NCCSc2c(-c3ccc(F)cc3)[nH]c3ccccc23)cc1,inconclusive: -1.28% [signal inhibitor],
CC1CCN(C(=O)CSc2nc3ccccc3[nH]2)CC1,inactive: 3.95%,
O=C(Nc1c(C(=O)N2CCN(c3ccccc3F)CC2)oc2ccccc12)c1cccc(F)c1,inconclusive: -1.76% [signal inhibitor],
COc1ccc(C2=CC(c3cc(Br)ccc3F)n3c(nc4ccccc43)N2)cc1 (stereo not given),inactive: 23.4%,
CCC1CCCCN1C(=O)Nc1cccc(NC(=O)N2CCCCC2CC)c1 (stereo not given),inconclusive: 3.36% [signal inhibitor],
Cc1nc(N2CCC(C(N)=O)CC2)c2nnn(Cc3ccccc3)c2n1,inactive: 0.817%,
CCOc1cc(/C=C(/C#N)c2ccc(F)cc2)ccc1OCc1ccc(C(=O)O)o1,inconclusive: 3.37% [signal inhibitor],
